The subject of the assay is NCI-H322M lung. The assay can be described thus: NCI anticancer screen, dose series, 48 h.

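Growth conditions: 96-well plates. Treatment: test compound, 48 hours, 5 concentrations. Analysis: linear interpolation between bracketing concentrations; unreached endpoints set to highest concentration. Abbreviation: GI50, concentration required for 50% inhibition of growth. At the TGI there is no net growth.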

As for `CN(C)CCCOc1c2ccc(Cl)cc2nc2c1oc1ccc(Cl)cc12`, the GI50 is 3.66 µM and the TGI turned out to be 15.3 µM.
As for `CC(C)(C)Nc1nc2c(OCCc3ccccc3)cccn2c1-c1cccc(F)c1`, the GI50 is 8.35 µM and the TGI was above 100 µM.
